The text below walks through data of PubChem BioAssay AID493208 (National Center for Advancing Translational Sciences (NCATS), 2011).

The whole screen tested about 44,000 compounds, of which about 340 (0.77%) were called active. About 5% were inconclusive and are not listed. Calls follow the shape of the dose curve; as a rule, active = well fitted inhibition curve with a large enough effect; inconclusive = small, poorly fitted or top-dose-only effect; inactive = flat fitted curve, though single readings scatter. The list shows a part of the results.
Potency is read from the fitted curve at half-maximal effect.

The assay can be described thus: Acumen qHTS Assay for Inhibitors of the mTORC1 Signaling Pathway in MEF (Tsc2-/-, p53-/-) Cells: Sytravon. Also: nearly all actives have a fitted effect of over 50% in size.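 As to activity change, negative = inhibition: plate controls were DMSO for no effect and rapamycin for full effect.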 The note with it: phospho-rpS6 immunofluorescence/PI, 24 h; series mostly up to 38.3 µM; activity change, negative = inhibition: at the top concentration. The text has this: NIH Molecular Libraries Probe Production Centers Network [MLPCN] NIH Chemical Genomics Center [NCGC] MLPCN Grant: NS059428-01 Assay Submitter (PI): Blenis, John; Hoffman, Greg; Harvard University NCGC Assay Overview: The mammalian target of rapamycin (mTOR) is an intracellular serine/threonine kinase Aberrant regulation of mTOR signaling plays a causative role in a number of human diseases, including cancer, benign tumors such as lymphangioleiomyomatosis (LAM) and Tuberous Sclerosis Complex (TSC), and metabolic diseases such as diabetes and obesity. This project aims to identify inhibitors of ribosomal protein S6 (rpS6) phosphorylation. The phosphorylation of rpS6 is a key event downstream of mTOR activation. The assay uses a phospho-specific antibody of phospho-rpS6 to detect inhibitors of mTOR activation. Mutations in the Tsc1 and Tsc2 genes are the underlying genetic lesions responsible for TSC, causing constitutive activation of the mTORC1 pathway and leading to profound effects on cell metabolism. Aberrant metabolism in cancer has recently received significant attention as a target to develop therapeutic agents in the treatment of cancer.1 As Tsc2-/- cells have lost the ability to respond to energy and growth factor deprivation, these cells are unable to properly down regulate cellular biosynthetic processes in response to metabolic stress, and are thus extremely sensitive to glucose deprivation-induced death.2 A central goal of this project is to explore the unique cell survival and metabolic properties of cells with Tsc1 or Tsc2 by screening for compounds that selectively target the Tsc2-/- MEFs by screening both Tsc2-/- and WT MEF cell lines. We hope to better understand these aspects of TSC physiology in order to exploit them for therapeutic benefit.
NCGC Acumen Assay Protocol Summary: For quantitative high throughput analysis of mTORC1 signaling, we developed a cell-based assay for immuno-fluorescence based detection of rpS6 phosphorylation on the Acumen Explorer that will be used a platform for the primary small molecule screen. Mouse embryonic fibroblasts (MEFs) are cultured in 1536-well plates using DMEM + 10% FBS. Twenty-four hrs after plating, test compounds (solubilized in DMSO) are delivered and incubated with the cells for 24 hrs at 37 degree Celsius. Following the incubation, media with compound is aspirated and the cells are fixed in 4% paraformaldehyde (PFA) containing PBS + 0.2% TX-100. Next, PFA is aspirated, cells are washed two times with PBS plus 0.2% TX-100 and the cells are blocked for 1 hr at room temperature (blocking buffer: LiCOR Blocking Buffer plus 0.2% TX-100). […] Cells are washed two times with PBS plus 0.2% TX-100, and stained with 10 uM propidium iodide (PI) for 20-25 minutes for cell number measurement (1:500 dilution of Hoescht staining is also added for IN Cell imaging). The plates are scanned on the Acumen Explorer laser scanning instrument (TTP Labtech) using the 488nm laser for simultaneous excitation of the Alexa-488 and PI. […] The normalized phospho-S6 staining is calculated as the ratio of the integrated Alexa 488 intensity divided by the integrated PI intensity for the single concentration rapamycin control (7.5 nM) and DMSO columns. […] Inhibition of the pathway is defined based on the normalized phospho-S6 intensity in rapamycin treated cells. Active cells are defined as those with a normalized phospho-S6 staining above this threshold, and each treatment is reported as the % positive cells in the well, where thresholds are defined by selecting wells with the highest and lowest signal and differentiating between the % non-active and % active populations. In addition to the pathway specific phospho-S6 endpoint, the number of PI stained cells from the Acumen is recorded as a measure of cell viability. The primary screen was performed with a MEF cell line in a defined genetic background, Tsc2-/-, p53-/- cell line stably transfected with an empty vector control (Tsc2-/- MEF).
Consider `Cc1ccc(NC(=O)CSc2nnc(C)n3c2cc2sccc23)c(C)c1`, for which the “activity change, negative = inhibition” value was inactive: 3.41%. Still for that read-out and setting: to `COCCNC(=O)C(=O)NCC(c1cccnc1)N1CCN(c2ccccc2OC)CC1` (stereo not drawn) belongs inactive: -0.15%.

`Cc1ccc(CSc2ccc(-c3cccs3)nn2)cc1`: the “activity change, negative = inhibition” value is inactive: 1.96%. Same read-out and setting: to `O=C(Cn1ncc2c3ccccc3n(Cc3ccccc3F)c2c1=O)NC1CCCCCC1` belongs inactive: 0.583%.

For `O=C(NCc1ccccc1Cl)c1cc2c(s1)-c1ccccc1SC2`, the “activity change, negative = inhibition” value was inactive: 2.5%. Same read-out and setting: as for `CC(C)(C)NC(=O)c1cnn(-c2ccccc2)c1C1CCN(C(=O)OC(C)(C)C)CC1`, the figure is inactive: -3.16%; as for `O=S(=O)(Nc1cccc(-c2ccc(N3CCCCCC3)nn2)c1)c1ccccc1F`, inactive: 7.91%. Still for that read-out and setting: to `CCC(=O)Nc1ccccc1-c1nc2ccccc2n(CC(=O)c2ccc(C)c(C)c2)c1=O` belongs inactive: -15.5%.

With `COc1cc(C(=O)NCC(c2cccnc2)N2CCc3ccccc3C2)cc(OC)c1OC` (stereo not drawn), the “activity change, negative = inhibition” value is inactive: 9.65%. Still for that read-out and setting: to `Cc1ccc(CN(C(=O)COc2ccc(Cl)c(C)c2)c2ccccn2)o1` belongs inactive: -15.1%.

Consider `CCc1nc2sc3c(N4CCC(C)CC4)ncnc3c2c2c1CCCC2`, for which the “activity change, negative = inhibition” value was inactive: 3.79%.

Turning to `Cc1oc2ncn(C)c(=O)c2c1C(=O)Nc1ccccn1`, the “activity change, negative = inhibition” value is inactive: -0.673%. Still for that read-out and setting: as for `O=C(CN1C(=O)COc2ccc(S(=O)(=O)N3CCOCC3)cc21)N1CCN(c2cccc(C(F)(F)F)c2)CC1`, the figure is inactive: -5.16%; as for `COc1cc(C2c3c(-c4c(C)cc(C)cc4O)n[nH]c3C(=O)N2CCO)cc(OC)c1OC` (stereo not drawn), inactive: -13.6%; as for `CN(C)S(=O)(=O)c1ccc(C(=O)NCCS(=O)(=O)N2CCN(c3ccccc3)CC2)cc1`, inactive: -6.32%. Still for that read-out and setting: as for `Cc1nc2nc(SCc3c(F)cccc3Cl)nn2c(C)c1Cc1ccccc1`, the figure is inactive: 5.74%; as for `Cc1ccc(-c2cc(-c3ccc4c(c3)NC(=O)CO4)nc3c2COc2ccc(C)cc2-3)cc1`, inactive: 2.36%. The same measure, in the same setting: to `COc1ccc(-c2noc(COc3cc(C)c(Br)c(C)c3)n2)cc1OC` belongs inactive: 6.39%; to `COc1ccc(OC)c(CNC(=O)c2cc3cc4ccc(OC)cc4nc3o2)c1`, inactive: -12%. On to `Cc1ccc(C(=O)/C=C/c2cn(CC(O)CN3CCc4ccccc43)c3ccccc23)cc1` (stereo not drawn), for which the “activity change, negative = inhibition” value is inactive: -0.878%.

Turning to `Cc1cc(-n2c(C)nc3ccccc3c2=O)ccc1NC(=O)c1ccc(C)c([N+](=O)[O-])c1`, the “activity change, negative = inhibition” value is inactive: -4.06%. For the molecule `CCOc1cc2sc(N3CCC(C(=O)Nc4ccccc4Cl)CC3)nc2cc1Br`, the “activity change, negative = inhibition” value was inactive: -0.0216%.

`Cc1cc(S(=O)(=O)C(CNC(=O)COc2ccccc2)c2cccs2)ccc1F` (stereo not drawn): the “activity change, negative = inhibition” value was inactive: 0%. Same read-out and setting: to `Cc1ccc(-c2nn(CC(=O)NC3CCCC3)c3c2cnc2ccc(F)cc23)cc1C` belongs inactive: -7.01%; to `COc1ccc(NC(=O)CCN2CCN(CCO)CC2)c(OC)c1`, inactive: -2.47%; to `O=C(Nc1ccc2nc(SCc3ccccc3)sc2c1)c1cccc(F)c1`, inactive: -1.26%.

Take `COc1ccc(OCCSc2nc(C)c(Cc3ccccc3)c(=O)[nH]2)cc1`: the “activity change, negative = inhibition” value is inactive: -3.12%. Still for that read-out and setting: as for `COc1ccc(Oc2nc3c(c(=O)n(C)c(=O)n3C)n2Cc2ccccc2Cl)cc1`, the figure is inactive: -4.41%. On to `COc1ccccc1Cn1cc(C(=O)c2ccc(Cl)cc2)c(=O)c2cc3c(cc21)OCCO3`, for which the “activity change, negative = inhibition” value is inactive: -6.55%. For `CN1CCN(C(=O)c2ccc3c(c2)N(Cc2c(F)cccc2Cl)C(=O)c2ccccc2S3)CC1`, the “activity change, negative = inhibition” value was inactive: 2.85%. On the same count and under the same terms, as for `CCc1sc(Nc2ccc(Cl)cc2)nc1-c1cc2cccc(OC)c2oc1=O`, the figure is inactive: -10.6%.

Regarding `Cc1cc(OCC(=O)Nc2cc(-c3nc4ccccc4[nH]3)ccc2C)ccc1Cl`, the Potency is active: 14.7 µM. With `CC(C(=O)Nc1ccc(F)c(Cl)c1)N1Cc2ccccc2C1=O` (stereo not drawn), the “activity change, negative = inhibition” value is inactive: -2.25%.

Turning to `COc1ccc(-c2noc(N3CCN(c4cccc(Cl)c4)CC3)n2)cc1OC`, the “activity change, negative = inhibition” value is inactive: -0.954%. Take `CCOc1ccc(C(=O)CSc2nnc3cc(C)c4ccccc4n23)cc1`: the “activity change, negative = inhibition” value is inactive: -1.7%. Turning to `Cc1ccccc1C(=O)Nc1nnc(SCc2cc(=O)n3ccccc3n2)s1`, the “activity change, negative = inhibition” value is inactive: 3.89%.

As for `COc1ccccc1CNC(=O)COc1cc(=O)n(C)c2ccccc12`, the “activity change, negative = inhibition” value was inactive: 1.34%. The same measure, in the same setting: as for `CCOc1cc(C(=O)Nc2nnc3n2CCS3)cc(OCC)c1OCC`, the figure is inactive: -8.11%; as for `CCCCC(CC)CNC(=O)c1ccc2c(=O)n(CCOC)c(=O)[nH]c2c1` (stereo not drawn), inactive: -0.455%. On the same count and under the same terms, to `CC(=O)c1cccc(S(=O)(=O)N2CCN(c3ccccc3F)CC2)c1` belongs inactive: -9.65%. As to `Cc1ccc(N(CC(=O)NCC(C)c2ccccc2)S(=O)(=O)N(C)C)cc1` (stereo not drawn), the “activity change, negative = inhibition” value was inactive: -5.3%. The same measure, in the same setting: as for `COc1ccccc1N1CCN(C(=O)c2cnn(-c3ccc(C)c(C)c3)c2C2CCN(C(=O)OC(C)(C)C)CC2)CC1`, the figure is inactive: -7.9%. On the same count and under the same terms, to `Cc1ccc(N2CCN(C(=O)NCc3noc4ccccc34)CC2C)cc1` (stereo not drawn) belongs inactive: -14.5%; to `Cc1cccc(C(=O)Nc2ccc(-c3nc4cc(C(C)C)ccc4o3)cc2)c1`, inactive: 18.1%. With `COc1ccc(S(=O)(=O)n2nc(C)c(S(=O)(=O)N3CCCCCC3)c2C)cc1OC`, the “activity change, negative = inhibition” value is inactive: 5.71%.

Regarding `CCOC(=O)c1c(C)oc2ncnc(NCCCN3CCN(c4cc(C)ccc4C)CC3)c12`, the “activity change, negative = inhibition” value is inactive: -2.38%.

Regarding `COc1ccc(-c2c3c(nc4sc(C(=O)Nc5ccc(F)cc5)c(N)c24)CC(C)(C)CC3=O)cc1`, the “activity change, negative = inhibition” value was inactive: -18.9%.

For the molecule `CCCOc1ccc(C(=O)N(Cc2cccs2)c2ccc(C)cc2)cc1`, the “activity change, negative = inhibition” value was inactive: -2.41%.
